The record followed here is ChEMBL document CHEMBL4888484, “Replenishing the malaria drug discovery pipeline: Screening and hit evaluation of the MMV Hit Generation Library 1 (HGL1) against asexual blood stage Plasmodium falciparum ,using a nano luciferase reporter read-out” (2022).

Among all 150,000 compounds or so, about 540 (0.36%) showed an effect of 50% or more. The list shows a part of the results.

The test system of this experiment is Plasmodium falciparum. The experiment in a line: Primary screen in NF54 nanoGlo assay, in single point, at 2uM, 72h; a lower Z score goes with more inhibition. The class given is functional, Erythrocyte. Conditions: timepoint 72 hour.
On to `CNC(=O)C1CCCC1Nc1cc(C)cc(F)c1S(N)(=O)=O` (stereo not drawn), for which the “% Inhibition” value is -7% and the Z score turned out to be 0.94.

As to `O=C(c1cc(-c2cccs2)nc2ccccc12)N(Cc1ccccc1)Cc1ccccc1`, the “% Inhibition” value is on record as -7% and the Z score is reported as 0.73.

With `O=C(CC1(O)CCCCC1)N1CCCCC1`, the “% Inhibition” value is on record as -4% and the Z score was 0.37.

Turning to `C[C@H]1CN(C(=O)c2ccccc2C#N)C[C@]1(O)C1CC1`, the “% Inhibition” value is listed as -1% and the Z score turned out to be 0.19.

As for `Cn1nccc1-c1csc(Nc2ccc3c(c2)OCCCO3)n1`, the “% Inhibition” value is given as 24% and the Z score is recorded as -3.26.

On to `COc1cc(C(=O)N[C@H]2CCOC(C)(C)C2)ccc1OC1CCN(C(C)=O)CC1`, for which the “% Inhibition” value is -11% and the Z score is listed as 1.24.

With `CN(C)C[C@@H]1CN(Cc2cccc(-c3ccccc3)c2)C[C@@H]1CO`, the “% Inhibition” value worked out at 0% and the Z score is recorded as -0.01.

Turning to `OC1(Cn2cnc(-c3ccccc3)c2-c2nccs2)CCCCC1`, the “% Inhibition” value is on record as -6% and the Z score is 0.73.

Consider `Cc1nc(CO[C@H]2CCN(S(=O)(=O)c3ccccc3OC(F)(F)F)C2)cs1`, for which the “% Inhibition” value is on record as -4% and the Z score was 0.51.

With `CCC(CC)[C@H]1CCN(CCCCO)C1`, the “% Inhibition” value worked out at 5% and the Z score was -0.83.

Turning to `Cc1[nH]c(=O)n(C)c(=O)c1CCC(=O)NCc1ccc(F)cc1`, the “% Inhibition” value is listed as -10% and the Z score was 1.58.

For `O=C(Nc1ncc2c(n1)CCCC2)c1ccc([C@@H]2CCCN2)s1`, the “% Inhibition” value is given as -2% and the Z score came to 0.33.

`CCn1cncc1CN[C@@H](CC(C)C)C(=O)NC`: the “% Inhibition” value was -18% and the Z score was 2.48.

With `Cc1ccc(C)c(NS(=O)(=O)c2ccc3c(c2)OC[C@@H](C(=O)N2CCCCCC2)O3)c1`, the “% Inhibition” value is listed as -6% and the Z score is 0.93.

Turning to `CC(=O)N1CCC([C@@H]2CN(C(=O)c3cc(C)cc(C)c3)C[C@H]2CO)CC1`, the “% Inhibition” value is listed as -9% and the Z score is 1.07.

Take `Cc1noc2nc(C3CC3)cc(C(=O)N[C@@H](Cc3ccccc3)C(N)=O)c12`: the “% Inhibition” value is -1% and the Z score worked out at 0.17.

As for `O=C(Cc1ccc2c(c1)OCC2)N1CCc2ccccc2C1`, the “% Inhibition” value was -1% and the Z score was 0.11.

Turning to `CCN(CC)[C@@H](C)CNC(=O)c1cc(Cl)c[nH]1`, the “% Inhibition” value was -42% and the Z score came to 4.9.

Consider `N#C[C@@H](N)c1cccc(C(F)(F)F)c1`, for which the “% Inhibition” value is listed as -5% and the Z score is on record as 0.6.

For the compound `CC(C)C(=O)N1CCC(CNC(=O)N(CCO)Cc2ccccc2F)CC1`, the “% Inhibition” value is reported as -2% and the Z score came to 0.34.

For the compound `CCc1nnc(CN2CCC[C@H]2c2nc3ccccc3s2)o1`, the “% Inhibition” value is reported as -12% and the Z score is on record as 1.17.

As for `CNC(=O)C1CCN(CC(=O)N2CCC(Cc3ccccc3)CC2)CC1`, the “% Inhibition” value is -3% and the Z score is 0.58.

For `Cc1cnn(CCC(=O)N2CCC(c3nnc4n3CCN(C(=O)C(C)C)CC4)CC2)c1`, the “% Inhibition” value came to 3% and the Z score is recorded as -0.54.

As for `Cc1cccc(NC2CCCCCC2)n1`, the “% Inhibition” value was -15% and the Z score is 2.9.

As for `CCn1cc(CC(=O)N2CCc3ccccc32)cn1`, the “% Inhibition” value is listed as -4% and the Z score is reported as 0.67.

Take `C/C(=C\Cn1cnc(C(N)=O)c1N)COC(C)(C)C`: the “% Inhibition” value is -30% and the Z score stood at 3.54.

In the case of `CC(C)CC(CNC(=O)NCC1CCCO1)N(C)C` (stereo not drawn), the “% Inhibition” value was -10% and the Z score was determined as 1.35.

In the case of `Cc1cccc(CN2CCCN(c3cccc(NC(=O)C(C)C)c3)C2=O)c1`, the “% Inhibition” value is reported as -7% and the Z score stood at 1.01.

Turning to `CCN(CC)Cc1cnc2c(C(=O)N3CCCCCCCC3)cnn2c1`, the “% Inhibition” value was -5% and the Z score came to 1.

For the compound `CC(C)N1CCN(C(=O)[C@@]23CCC=C2N(C2CCCC2)C(=O)CC3)CC1`, the “% Inhibition” value was -8% and the Z score amounted to 1.29.

As for `C[C@@H](C(=O)NC(C)(C)C)N1CCC(O)(C(F)(F)F)CC1`, the “% Inhibition” value is 2% and the Z score was -0.31.

For the compound `Cc1noc(C)c1Cc1nc(C2CCOCC2)nn1CC(F)(F)F`, the “% Inhibition” value is 0% and the Z score amounted to 0.07.

As to `O=C(O)c1nn(-c2ccc3c(c2)OCO3)c2ccccc2c1=O`, the “% Inhibition” value was -6% and the Z score worked out at 0.92.

Turning to `CCc1csc(Cn2cc(-c3cc(C#CCO)cs3)nn2)n1`, the “% Inhibition” value is -7% and the Z score was determined as 1.13.

For the compound `COc1cc(=O)[nH]cc1C(=O)N1C[C@H](C)Oc2ccccc21`, the “% Inhibition” value was -5% and the Z score was 0.96.

Regarding `CCOc1cc(CNc2cc(C)ccc2C)cc(Br)c1OCC(=O)Nc1ccccc1`, the “% Inhibition” value is listed as -2% and the Z score is 0.3.

For `C[C@H](NCCC1Cc2ccccc2C1)c1cnccn1`, the “% Inhibition” value is given as -1% and the Z score is 0.16.

Consider `Cc1ccc(NC(=O)c2ccc3c(c2)nnn3Cc2ccccc2C)nc1`, for which the “% Inhibition” value was -10% and the Z score is given as 0.98.

With `CC(C)(C(=O)Nc1nc(-c2ccsc2)ns1)C(F)(F)F`, the “% Inhibition” value is on record as -3% and the Z score worked out at 0.38.

Consider `COC1CC(Oc2ccccc2C(N)=O)C1` (stereo not drawn), for which the “% Inhibition” value is 1% and the Z score is -0.16.

With `NC(=O)c1c(NC(=O)c2csc3c2CCCC3)sc2c1CCCC2`, the “% Inhibition” value was 5% and the Z score is -0.55.

In the case of `COC[C@@H]1[C@H](C(=O)Nc2ccc3c(c2)OCCO3)CCCN1C`, the “% Inhibition” value is on record as -16% and the Z score is listed as 1.91.

Regarding `CCCn1nc(C)cc1CN(C)C(=O)c1ccc(CC2CCN(S(C)(=O)=O)CC2)cc1`, the “% Inhibition” value was -8% and the Z score was 1.36.

As to `Cc1nn(C)c(C)c1CN1CC[C@H](O)CC(C)(C)C1`, the “% Inhibition” value came out at 4% and the Z score was -0.8.

A word on the % Inhibition: it is the relative decrease from the control value, in per cent.
